Test results published in PubChem BioAssay AID1508624 (National Center for Advancing Translational Sciences (NCATS), 2021).
The campaign covered roughly 48,000 compounds. About 120 (0.25%) were called active. Another 4% or so got no clear call; they are omitted. Calls come from the whole dose curve; as a rule, active = well fitted activation curve with a large enough effect; inconclusive = small, poorly fitted or top-dose-only effect, or another doubt; inactive = no such curve, though single readings can be large or run the other way. The list shows a part of the results.

assay: Primary qHTS for Identification of Small Molecule Activators of Huntingtin-Antisense Promoter Activity; details: HEK293 HTT-AS promoter firefly luciferase reporter, 24 h; series mostly up to 57.5 µM; activity change, positive = activation: at the top concentration; note: nearly all actives have a fitted effect of over 55% in size
From the text: Assay Provider: Russell L. Margolis M.D.
Department Neurology, Johns Hopkins University School of Medicine, Baltimore, MD
Huntington's Disease (HD) is a neurodegenerative disorder caused by a CAG repeat expansion in exon 1 of huntingtin (HTT). While there are currently no disease-modifying treatments for HD, recent efforts have focused on development of nucleotide-based therapeutics to lower HTT expression. As an alternative to siRNA or oligonucleotide methods, we hypothesized that suppression of HTT expression might be accomplished by small molecules that either (1) directly decrease HTT expression by suppressing HTT promoter activity or (2) indirectly decrease HTT expression by increasing the promoter activity of HTT-AS, the gene antisense to HTT that appears to inhibit expression of HTT.
We developed and employed a high throughput screen for modifiers of HTT and HTT-AS promoter activity using luminescent reporter HEK293 cells; of the 52,041 compounds tested, we identified 898 replicable hits. We used a rigorous stepwise approach to assess compound toxicity and the capacity of the compounds to specifically lower huntingtin protein in 5 different cell lines, including HEK293 cells, HD lymphoblastoid cells, mouse primary neurons, HD iPSCs differentiated into cortical-like neurons, and HD hESCs. We found no compounds which were able to lower huntingtin without lowering cell viability in all assays, though the potential efficacy of a few compounds at non-toxic doses could not be excluded.
SEQUENCE No. (1, 2, 3, etc.); […] (e.g., Cells, Incubation, Reagent, etc.); VALUE and DESCRIPTION.
1; Reagent; 4 uL; 2,500 Hek293 luciferase reporter cells per wells
3; Compound; 23 nL; Control inhibitor / compound library
5; Reagent; 2.5 uL; Firefly Luc reagent; Dual-Glo Luciferase Reporter Assay System (Promega)
6; Time; 10 min; room temperature incubation
7; Detection; Luminescence; FLuc
NOTES (numbers refer to sequence above)
1; High-throughput screening, measuring luminescence from a Hek293 luciferase reporter, was performed in 1,536 well white-walled tissue-culture treated plates. 2,500 cells were plated in 4 µL of Opti-MEM per well using a Multidrop Combi Reagent Dispenser (ThermoFisher).
2; Assay plates were cultured for 24 hours.
3; Control inhibitor (PTC124; final concentration of 50 uM) and compound library (at final concentrations of 460 nM - 57.5 uM) were added to the assay plate using the Kalypsis Pintool Robotic System equipped with 1536 pinheads.
4; Cells were then incubated for 24 hours at 37 degrees C prior to luminescence measurements.
5; In all cases, luminescence was measured using the Dual-Glo Luciferase Reporter Assay System (Promega) following the manufacturer's instructions.
6; Room temperature incubation.
7; Luminescence signal was obtained using the PerkinElmer ViewLux plate reader. Results were normalized to vehicle control (0% activity) and zero RLU (-100% activity).

Activity change, positive = activation, inactive:
NC(=O)C1CCN(C(=O)Cn2c(-c3cccs3)cc3ccccc32)CC1 -14%
CCOc1ccc(NC(=O)CN2CCN(CC(=O)Nc3ccccc3OCC)CC2)cc1 -16.2%
CCCCN(c1ccccc1)S(=O)(=O)c1ccc2c(c1)CC(C)N2C(=O)C1CC1 (stereo unspecified) -38.1%
CCc1ccccc1Nc1nc2ccccc2n2cnnc12 -24.9%
COc1ccc(CCNC(=O)CCn2c(=O)c3cccn3c3cccnc32)cc1OC -13.9%
COc1ccccc1-n1nc(-c2ccccc2)c2cnc3cc(C(F)(F)F)ccc3c21 -19.3%
CCOC(=O)c1ccc(NC(=O)COC(=O)c2cn(CC)c3nc(C)ccc3c2=O)cc1 -9.73%
CC1CN(S(=O)(=O)c2ccc3c(c2)NC(=O)CC(=O)N3)c2ccccc2O1 (stereo unspecified) -3.69%
COc1ccc(-c2oc3ncn4nc(-c5ccccc5C)nc4c3c2-c2ccc(OC)cc2)cc1 -6.06% [at 11.5 µM, percent change from vehicle, -100% = no light]
Cc1cccc(C)c1OC(=O)CSc1nnc(-c2cccs2)o1 -2.05%
Cc1ccc(-n2nc(C(=O)Nc3ccc(C)c(F)c3)c3c4ccccc4n(C)c3c2=O)cc1 -10.5%
NC(=O)Cn1c(=O)n(CCCCCC(=O)NCc2ccccc2)c(=O)c2sccc21 5.1%
COc1ccc(-n2c(=O)c3ccccc3n(Cc3ccccc3C)c2=O)c(OC)c1 -36.8%
CC(=O)Nc1nonc1-c1nnc(SCC(=O)Nc2ccc(C)c(Cl)c2)n1-c1ccccc1 -23.5%
CCOc1ccc(C(=O)c2cnc3ccc(Cl)cc3c2S(=O)(=O)c2ccc(C)cc2)cc1 2.02%
CCc1ccccc1Nc1nc2cc(Cl)c(Cl)cc2nc1-n1nc(C)cc1C -3.19%
Cc1ccc(-n2nc(CO)c(C(=O)NCCCc3ccccc3)n2)cc1 -9.25%
COc1ccccc1CNC(=O)c1cnc2sc(N3CCCCCC3)nn2c1=O -16.6%
O=c1c2ccccc2n(Cc2ccccc2F)c(=O)n1-c1cccc(F)c1 -31.5%
Cc1cccc(NC(=O)c2ccc(-c3nc(CSc4ccccc4)c(C)o3)cc2)c1C 0%
Cc1nc2sc(C(N)=O)c(N)c2c(-c2ccc(Br)cc2)c1C(=O)Nc1ccc(Cl)cc1 -48.9%
CSc1ccc(CNC(=O)CCn2c(=O)c3cccn3c3ccc(F)cc32)cc1 -17.7%
Cc1ccccc1C(=O)Nc1ccc2c(c1)CCCN2C(=O)c1cccs1 -11.6%
COc1ccc(C(=O)N2CCC(c3nc(-c4ccc(S(=O)(=O)N5CCCC5)cc4)no3)CC2)cc1 -24.3%
COC(=O)c1cc2occc2n1Cc1cccc(C)c1 -20.9%
COCCNC(=O)CCN1C(=O)c2cccnc2Oc2ccc(C)cc21 -2.86%
